# Test results published in the antibiotic and cytotoxicity screens of Wong et al. (2023).
# Some of the results follow.
# Key:
# [1] = test system: HSkMC (human skeletal muscle cells); test: cytotoxicity call (relative viability < 0.9); settings: 10 µM
# [2] = test system: HepG2; test: cytotoxicity call (relative viability < 0.9); settings: 10 µM
# [3] = test system: S. aureus RN4220; test: growth inhibition call (relative growth <= 0.2); settings: 50 µM
Structure (SMILES),cytotoxicity call [1],cytotoxicity call [2],growth inhibition call [3]
COc1cc(OC)cc(C(=O)N(Cc2ccco2)Cc2cc3ccc(SC)cc3nc2-c2cccc(OC)c2)c1,inactive,inactive,inactive
C[C@@H]1CN([C@@H](C)CO)C(=O)Cc2cc(NC(=O)CCC(F)(F)F)ccc2O[C@H]1CN(C)S(=O)(=O)c1cn(C)cn1,inactive,inactive,inactive
C[C@@H]1CN([C@H](C)CO)C(=O)c2cc(NC(=O)Nc3cccc4ccccc34)ccc2O[C@@H](C)CCCCO[C@@H]1CN(C)C(=O)Cc1ccccc1,inactive,inactive,inactive
COc1cccc(NC(=O)N[C@H]2C=C[C@H](CC(=O)N3CCOCC3)O[C@@H]2CO)c1,inactive,inactive,inactive
C[C@@H]1CN([C@@H](C)CO)C(=O)c2c(c3ccccc3n2C)-c2ccccc2CO[C@H]1CN(C)C(=O)Nc1cccc(C(F)(F)F)c1,inactive,active,inactive
CCCNC(=O)N(C)C[C@@H]1Oc2ncc(-c3ccc(C(=O)N(C)C)cc3)cc2C(=O)N([C@@H](C)CO)C[C@@H]1C,inactive,inactive,inactive
C[C@@H]1CCCCO[C@@H](CN(C)C(=O)Nc2ccc3c(c2)OCO3)[C@H](C)CN([C@@H](C)CO)C(=O)c2cc(NC(=O)NC3CCCCC3)ccc2O1,inactive,inactive,inactive
CS(=O)(=O)CCOC(=O)C1=CC(CCCO)=C[C@@H](c2ccc(CN3CCCC3)cc2)N(Cc2sc3ccccc3c2Cl)C=C1C(=O)OCCS(C)(=O)=O,inactive,inactive,active
CC(=O)OC1CC(O)C(C)(C)C2CC(OC(C)=O)C3(C)C(CCC4(C)C(c5ccoc5)OC(=O)C5OC543)C12C (configuration not stated),inactive,inactive,inactive
Cc1ccc(S(=O)(=O)Nc2ccc3c(c2)C(=O)N([C@@H](C)CO)C[C@@H](C)[C@@H](CN(C)C(=O)Nc2c(C)noc2C)OCCCC[C@H](C)O3)cc1,inactive,inactive,inactive
COc1ccc(NC(=O)Nc2ccc3c(c2)CC(=O)N([C@@H](C)CO)C[C@@H](C)[C@@H](CN(C)Cc2ccc(Cl)c(Cl)c2)O3)cc1,inactive,active,inactive
C[C@@H]1CN([C@@H](C)CO)C(=O)Cc2cc(NC(=O)Cc3cn(C)c4ccccc34)ccc2O[C@@H]1CN(C)Cc1ccc(Cl)c(Cl)c1,inactive,inactive,inactive
COCC(=O)Nc1ccc2c(c1)C(=O)N(C)C[C@H](OC)[C@H](C)CN(C(=O)Cc1ccccn1)[C@@H](C)CO2,inactive,inactive,inactive
C[C@@H]1CCCCO[C@H](CN(C)Cc2ccccc2)[C@H](C)CN([C@@H](C)CO)C(=O)c2cc(NC(=O)Cc3ccccc3)ccc2O1,inactive,inactive,inactive
Cc1noc(C)c1NC(=O)Nc1cccc2c1O[C@H](CN(C)S(=O)(=O)c1cn(C)cn1)[C@H](C)CN([C@H](C)CO)C2=O,inactive,inactive,inactive
C[C@@H]1CN([C@H](C)CO)C(=O)c2cccc(NC(=O)Nc3ccc4c(c3)OCO4)c2O[C@@H]1CN(C)Cc1ccc(Cl)c(Cl)c1,inactive,inactive,inactive
C[C@@H]1CN([C@@H](C)CO)S(=O)(=O)c2ccc(C#Cc3ccccc3)cc2O[C@@H]1CN(C)S(C)(=O)=O,inactive,inactive,inactive
Cc1ccccc1N1CCN(S(=O)(=O)C[C@@]23CC[C@@H](C[C@@H]2NC(=O)[C@@H](N)CCS(C)(=O)=O)C3(C)C)CC1,inactive,inactive,inactive
CC1OC(Oc2c(-c3ccc(O)c(O)c3)oc3cc(O)cc(O)c3c2=O)C(O)C(O)C1O (configuration not stated),inactive,inactive,inactive
C[C@H]1CCCCO[C@H](CN(C)C(=O)C2CCCCC2)[C@@H](C)CN([C@@H](C)CO)C(=O)c2cc(NS(=O)(=O)c3ccc(Cl)cc3)ccc2O1,active,inactive,inactive
C[C@@H]1CCCCO[C@@H](CN(C)Cc2ccc(C(=O)O)cc2)[C@H](C)CN([C@@H](C)CO)C(=O)c2cc(NC(=O)Nc3ccc4c(c3)OCO4)ccc2O1,inactive,inactive,inactive
COc1ccc(NC(=O)Nc2ccc3c(c2)C(=O)N([C@@H](C)CO)C[C@H](C)[C@H](CN(C)S(=O)(=O)c2ccc(C)cc2)OCCCC[C@H](C)O3)cc1,inactive,active,inactive
C[C@@H]1CN([C@@H](C)CO)C(=O)CCCn2nncc2CO[C@@H]1CN(C)S(=O)(=O)c1ccc2ccccc2c1,inactive,inactive,inactive
C[C@H](CO)N1C[C@H](C)[C@H](CN(C)S(C)(=O)=O)Oc2cc(-c3cccc(F)c3)ccc2S1(=O)=O,inactive,inactive,inactive
O=C(NN1CCCCC1)c1nn(-c2ccc(Cl)cc2Cl)c(-c2ccc(C#Cc3ccc(C(F)(F)F)cc3)s2)c1CNS(=O)(=O)N1CCCC1,inactive,inactive,inactive
C[C@@H]1CN([C@@H](C)CO)S(=O)(=O)c2ccc(Br)cc2O[C@@H]1CN(C)C(=O)c1ccccn1,inactive,inactive,inactive
C[C@@H]1CN([C@H](C)CO)S(=O)(=O)c2ccc(C#CC3CC3)cc2O[C@H]1CN(C)Cc1cccc(F)c1,inactive,inactive,inactive

Structure (SMILES),cytotoxicity call [1],cytotoxicity call [2],growth inhibition call [3]
C[C@H]1CN([C@@H](C)CO)C(=O)Cc2cc(NC(=O)Nc3ccc(F)cc3)ccc2O[C@H]1CN(C)Cc1ccc(C(=O)Nc2ccccc2N)cc1,active,active,inactive
C[C@H](CO)N1C[C@H](C)[C@@H](CN(C)CC2CC2)Oc2c(NS(=O)(=O)c3ccccc3)cccc2C1=O,inactive,inactive,inactive
Cc1nn(C)cc1NC(=O)C[C@@H]1CC[C@H]2[C@H](COc3ccc(NC(=O)C4CCOCC4)cc3C(=O)N2C)O1,inactive,inactive,inactive
Cc1ccc(S(=O)(=O)N2C[C@@H](O)COC[C@H]3O[C@H](CC(=O)NCc4cccc(Cl)c4)CC[C@@H]32)cc1,inactive,inactive,inactive
Cc1ccc(S(=O)(=O)N(C)C[C@@H]2Oc3cc(C#Cc4ccncc4)ccc3S(=O)(=O)N([C@@H](C)CO)C[C@H]2C)cc1,inactive,active,inactive
C[C@H](CO)N1C[C@H](C)[C@@H](CN(C)Cc2ccc(C(=O)O)cc2)Oc2ccc(NS(C)(=O)=O)cc2CC1=O,inactive,inactive,inactive
CC(C)NC(=O)N(C)C[C@@H]1Oc2ccc(NS(=O)(=O)c3ccc(F)cc3)cc2C(=O)N([C@@H](C)CO)C[C@H]1C,inactive,inactive,inactive
C[C@H]1CN([C@@H](C)CO)C(=O)c2cccc(NC(=O)Nc3ccc(F)cc3)c2O[C@H]1CN(C)Cc1ccc(C(F)(F)F)cc1,inactive,inactive,inactive
C[C@H]1CCCCO[C@@H](CN(C)C(=O)NC2CCCCC2)[C@@H](C)CN([C@@H](C)CO)C(=O)c2cc(NC(=O)C3CCCCC3)ccc2O1,inactive,inactive,inactive
COc1cc(C(=O)NCCCCCC(=O)O)cc(OC)c1OC,inactive,inactive,inactive
C[C@@H]1CCCCO[C@@H](CN(C)C(=O)Nc2ccc(C(F)(F)F)cc2)[C@H](C)CN([C@H](C)CO)C(=O)c2cc(NC(=O)c3ccccc3)ccc2O1,inactive,inactive,inactive
C[C@H](CO)N1C[C@H](C)[C@H](CN(C)S(=O)(=O)c2cccc(F)c2)Oc2ncc(C#CC3(O)CCCC3)cc2C1=O,inactive,inactive,inactive
C[C@@H]1CCCCO[C@H](CN(C)C(=O)Nc2ccc3c(c2)OCO3)[C@@H](C)CN([C@H](C)CO)C(=O)c2cc(NS(=O)(=O)c3ccc(Cl)cc3)ccc2O1,inactive,inactive,inactive
O=C(CCCCCCC(=O)Nc1ccccc1O)N/N=C/[C@H](O)[C@@H](O)[C@@H](O)[C@H](O)C(=O)O,inactive,inactive,inactive
COCCOC(=O)N1C(=O)[C@@]2(c3cc(C#CC4(O)CCCCCC4)ccc31)[C@H](c1ccc(OCCO)cc1)N1[C@H](c3ccccc3)[C@H](c3ccccc3)OC(=O)[C@H]1[C@@H]2C(=O)NC[C@H](O)c1ccccc1,inactive,inactive,inactive
COc1ccc(NC(=O)Nc2ccc3c(c2)C(=O)N([C@@H](C)CO)C[C@H](C)[C@H](CN(C)S(=O)(=O)c2ccc(Cl)cc2)OCCCC[C@@H](C)O3)cc1,inactive,inactive,inactive
COc1c2occc2c(OC)c2c(=O)cc(C)oc12,inactive,active,inactive
OCCc1ccccc1,inactive,inactive,inactive
CC(C)[C@@H](N)c1nccn1C,inactive,inactive,inactive
Cn1c(=O)c2c(nc(S(C)(=O)=O)n2C)n(C)c1=O,inactive,active,inactive
CC[C@H]1NCCNC1=O,inactive,inactive,inactive
Cc1ccc(S(=O)(=O)Nc2ccc3c(c2)C(=O)N([C@@H](C)CO)C[C@@H](C)[C@@H](CN(C)C(=O)C2CCCCC2)OCCCC[C@@H](C)O3)cc1,inactive,inactive,inactive
CO[C@H]1CN(C)C(=O)c2ccc(NC(=O)Nc3cccc(F)c3)cc2OC[C@H](C)N(C(=O)Nc2c(C)noc2C)C[C@H]1C,inactive,inactive,inactive
CCN(CC)C(=O)N1CCN(CCC#N)CC1,inactive,inactive,inactive
C[C@@H]1CN([C@H](C)CO)S(=O)(=O)c2ccc(-c3cncnc3)cc2O[C@H]1CN(C)C(=O)C1CCCCC1,inactive,inactive,inactive
COc1ccc(S(=O)(=O)N(C)C[C@H]2Oc3cc(C4=CCCC4)ccc3S(=O)(=O)N([C@H](C)CO)C[C@H]2C)cc1,inactive,inactive,inactive
C[C@H](CO)N1C[C@H](C)[C@@H](CN(C)Cc2ccc(C(F)(F)F)cc2)Oc2ccc(NC(=O)Nc3ccc(C(F)(F)F)cc3)cc2C1=O,inactive,inactive,inactive
